Results on one molecule are retold here after patent US20190345250A1, “ANTIBODY DRUG CONJUGATES” (NOVARTIS AG, priority 2013, published 2019).

For one test, the target named is T1, human FGFR2 IIIc (Homo sapiens, UniProt P21802).
T1 construct: residues 22-378-TAG; made in house
Nature of the test: ELISA/FACS screening of panning outputs for specificity and cross-reactivity. The format is binding. To be noted: Uniprot Accession # P21802-1. In general terms: An ELISA detects its analyte on a solid surface through an enzyme-linked reagent.

In the next test the target is T2, human FGFR2 IIIb (Homo sapiens, UniProt P21802).
T2 construct: residues 22-378-TAG; made in house
Described as above. The format is binding. The following applies: Uniprot Accession # P21802-3.

B1: Antibody 11725 (antibody)
heavy: QVQLLESGGGLVQPGGSLRLSCAASGFTFNTYWLHWVRQAPGKGLEWVSVISSDSSSTYYADSVKGRFTISRDNSKNTLYLQMNSLRAEDTAVYYCARDSRLDYWGQGTLVTVSSASTKGPSVFPLAPSSKSTSGGTAALGCLVKDYFPEPVTVSWNSGALTSGVHTFPAVLQSSGLYSLSSVVTVPSSSLGTQTYICNVNHKPSNTKVDKRV[human IgG1 Fc cut from this listing]
light: DIELTQPPSVSVSPGQTASITCSGDSIGDTYVDWYQQKPGQAPVLVIYDDIDRPSGIPERFSGSNSGNTATLTISGTQAEDEADYYCYVYAWTGTSNVFGGGTKLTVLGQPKAAPSVTLFPPSSEELQANKATLVCLISDFYPGAVTVAWKADSSPVKAGVETTTPSKQSNNKYAASSYLSLTPEQWKSHRSYSCQVTHEGSTVEKTVAPTECS
Consider B1, for which the “binding to FGFR2 IIIc isoform” value with human FGFR2 IIIc was “found to bind”. Further, the “binding to FGFR2 IIIb isoform” value with human FGFR2 IIIb is on record as “found to bind”.
